Reference: PMC4336329 (PLoS ONE, 2015)
Among all 310,000 compounds or so, about 14,000 (4.5%) showed an effect of 50% or more. The effect is printed as a negative number. This is one part of the list.

These compounds were tested against human ether-à-go-go-related gene (hERG) potassium channel (human, UniProt Q12809) (assay: primary screen, population patch clamp on CHO cells stably expressing hERG).
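Also: peak tail current of the secondary pulse compared with the same well before compound.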

Chain of human ether-à-go-go-related gene (hERG) potassium channel (Q12809 whole entry, looked up): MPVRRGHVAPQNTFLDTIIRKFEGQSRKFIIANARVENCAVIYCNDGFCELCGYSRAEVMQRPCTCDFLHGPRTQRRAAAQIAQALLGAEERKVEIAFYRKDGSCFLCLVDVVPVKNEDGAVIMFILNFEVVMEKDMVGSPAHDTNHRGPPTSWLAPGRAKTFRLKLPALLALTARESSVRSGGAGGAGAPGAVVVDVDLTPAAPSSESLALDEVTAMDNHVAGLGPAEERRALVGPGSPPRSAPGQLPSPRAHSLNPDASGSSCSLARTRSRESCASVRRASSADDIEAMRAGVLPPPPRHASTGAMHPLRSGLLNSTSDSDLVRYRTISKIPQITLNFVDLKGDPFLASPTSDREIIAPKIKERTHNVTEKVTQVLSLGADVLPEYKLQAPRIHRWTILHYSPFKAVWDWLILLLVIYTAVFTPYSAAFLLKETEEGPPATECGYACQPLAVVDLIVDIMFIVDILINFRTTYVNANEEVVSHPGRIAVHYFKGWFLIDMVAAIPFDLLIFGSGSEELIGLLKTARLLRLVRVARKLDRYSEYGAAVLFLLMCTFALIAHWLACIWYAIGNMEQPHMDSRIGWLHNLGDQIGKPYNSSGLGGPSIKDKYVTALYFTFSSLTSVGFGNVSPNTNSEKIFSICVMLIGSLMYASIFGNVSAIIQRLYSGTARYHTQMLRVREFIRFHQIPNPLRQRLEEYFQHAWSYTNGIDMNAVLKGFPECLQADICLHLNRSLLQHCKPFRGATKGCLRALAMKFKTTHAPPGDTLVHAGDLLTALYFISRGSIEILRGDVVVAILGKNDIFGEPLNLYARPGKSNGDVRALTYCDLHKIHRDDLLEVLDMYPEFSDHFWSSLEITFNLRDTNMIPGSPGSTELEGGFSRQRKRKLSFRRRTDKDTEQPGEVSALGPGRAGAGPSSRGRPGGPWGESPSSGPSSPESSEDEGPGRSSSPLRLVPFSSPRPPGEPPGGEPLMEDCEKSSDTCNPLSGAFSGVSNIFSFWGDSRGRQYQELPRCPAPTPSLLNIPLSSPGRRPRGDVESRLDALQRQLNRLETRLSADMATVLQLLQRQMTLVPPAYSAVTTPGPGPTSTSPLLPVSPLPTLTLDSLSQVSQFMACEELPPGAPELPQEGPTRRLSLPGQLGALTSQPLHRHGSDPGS

Row | SMILES | hERG current change (%, negative = inhibition) at 10uM
1 | Cc1ccc(S(=O)(=O)N(C)CC(=O)NNC(=O)Cc2cccc(F)c2)cc1 | -0.829%
2 | Cc1cc(C)cc(-n2ncc3c2CCCC3NC(=O)c2cc(C)[nH]n2)c1 (stereo not drawn) | -67.5%
3 | Fc1ccc(Nc2nc(-c3cccnc3)cs2)cc1 | 20.6%
4 | Cn1cc(CN2CCC(Oc3ccc(C(=O)N4CCCCC4)cc3)CC2)cn1 | 8.81%
5 | CCn1c(SCc2ccc(F)cc2)nc2ccccc2c1=O | 24.9%
6 | CCn1cc(C(=O)N2CCN(C(=O)c3ccco3)CC2)c2cc(OC)c(OC)cc2c1=O | 7.72%
7 | COc1cccc(C(=O)N[C@@H](CCSC)c2nc3ccccc3[nH]2)c1 | 3.84%
8 | O=C1c2ccccc2C(=O)N1c1n[nH]c(CCc2ccccc2)n1 | -4.06%
9 | O=C(CCSCc1ccc(Cl)cc1)NCCC1=CCCCC1 | 11.4%
10 | CCOC(=O)C1=C(N)n2c(s/c(=C\c3cccs3)c2=O)=C(C(=O)OCC)C1c1cccs1 (stereo not drawn) | 7.19%
11 | CCCCC(=O)Nc1nnc(CCOC)s1 | -6.9%
12 | Cc1ccccc1NC(=S)Nn1cnnc1 | 16.7%
13 | Cn1c(=O)c2c(nc(Oc3ccc4c(c3)OCO4)n2Cc2ccc(Cl)cc2)n(C)c1=O | 9.89%
14 | CC1CCCN(S(=O)(=O)c2ccc(NC(=O)C3CCN(C(=O)C(C)(C)C)CC3)cc2)C1 (stereo not drawn) | -5.21%
15 | Cc1ccc(Cn2nnc3c(=O)n(CC(=O)N4CCCCC4)cnc32)cc1 | -11.1%
16 | COc1cccc(C(CC(=O)Nc2cccc3ccccc23)NC(=O)c2ccccc2)c1 (stereo not drawn) | 3.42%
17 | Cn1nc(C(=O)Nc2sccc2C(N)=O)ccc1=O | 15.3%
18 | COc1ccc(Br)cc1CNC(C)c1ccccc1 (stereo not drawn) | -19.8%
19 | CN1CCN(c2c(F)cc3c(=O)c(C(=O)O)cn4c3c2SCC4)CC1.Cl | 13.6%
20 | COc1ccccc1N1CCN(C(=O)c2cccs2)CC1 | 1.78%
21 | CCOc1ccc(-n2c(SCc3nc(-c4ccc(C)cc4)no3)nnc2-c2ccncc2)cc1 | -73.2%
22 | O=C(NCC(O)CO)c1csc(Nc2cccc3ccccc23)n1 (stereo not drawn) | -2.43%
23 | Cc1nn(CC(=O)NCc2ccccc2)c(C)c1[N+](=O)[O-] | -1.51%

Row | SMILES | hERG current change (%, negative = inhibition) at 10uM
24 | CC(=O)c1ccc(NC(=O)C(C)Sc2nnc3ccccn23)cc1 (stereo not drawn) | -4.83%
25 | CN(C)c1nc(N)c2ncc(=S)[nH]c2n1 | 16.9%
26 | Cc1ccccc1C(OCC(O)CN1CCCCC1CCO)c1ccccc1 (stereo not drawn) | -61.6%
27 | Brc1cccc(CNn2cnnc2)c1 | 14.5%
28 | CCCn1nc(C(=O)NC2CC2)c2ccccc2c1=O | -19.8%
29 | Cn1c(CSc2nc3ccccc3s2)nnc1SCC(=O)NCCN1CCOCC1 | 6.22%
30 | O=C(COC(=O)C1CCN(S(=O)(=O)c2cccc3cccnc23)CC1)c1ccccc1 | 7.23%
31 | N#C/C(=C\c1ccc([N+](=O)[O-])cc1)C(=O)Nc1ccccc1O | -5.87%
32 | CCn1cc(C(=O)NC(C)CCc2ccccc2)c(=O)c2cc(S(=O)(=O)N(C)C)ccc21 (stereo not drawn) | -21.1%
33 | COc1ccc(Nc2ccc(S(=O)(=O)N3CCCCC3)cc2[N+](=O)[O-])cc1Cl | -4.46%
34 | Cc1ccc(-n2nnnc2SC(C)C(N)=O)c(C)c1 (stereo not drawn) | 11.9%
35 | Cc1cccc2nc(CSc3ncccc3C(=O)O)cn12 | 13.3%
36 | CC(NC(=O)C12CC3CC(CC(C3)C1)C2)c1ccc2c(c1)OCCO2 (stereo not drawn) | 6.1%
37 | CC(C)(C)OC(=O)N1CCC(C(=O)N2CCOCC2)CC1 | 11.3%
38 | COc1ccccc1-c1noc(CCC(=O)Nc2ccccc2Cl)n1 | -4.71%
39 | Cl.Nc1nc(C2C(=O)CCCC2=O)cs1 | 9.89%
40 | Cc1sc(NC(=O)c2cccs2)c(C(=O)OC(C)C)c1C | 12%
41 | CCn1c(NC(=O)c2nn(C)cc2Br)nc2ccccc21 | -7.65%
42 | Cc1nc2ccccc2c(=O)n1NC(=O)c1ccccc1F | 5.02%
43 | Cc1ccc(C(=O)N/C(=C/c2ccc(-c3ccc(Br)cc3)o2)C(=O)NC2CCS(=O)(=O)C2)cc1 (stereo not drawn) | -6.35%
44 | COc1ccc(NC(=O)NCCCN2CCCCC2C)cc1 (stereo not drawn) | -10.6%
45 | CC(C)(CO)NC(=O)c1ccc2c(c1)C(=O)c1ccccc1-2 | 0.123%
46 | Cc1ccccc1C(=O)NCC(=O)Nc1ccc(C)c(S(=O)(=O)N2CCCCCC2)c1 | -44.1%

Row | SMILES | hERG current change (%, negative = inhibition) at 10uM
47 | CNC(=O)c1cc2cc(Cl)cc(OC)c2oc1=O | 11.8%
48 | COC(=O)c1ccc(COc2ccc(-c3nnn(CC(=O)NC(C)(C)C)n3)cc2)cc1 | 10.6%
49 | O=C(NC(=S)Nc1ccc2oc(=O)ccc2c1)c1ccco1 | 9.84%
50 | Cc1ccc(-c2nc(CSCC(=O)N3CCN(c4ccccn4)CC3)c(C)o2)cc1 | -25%
51 | CC(C)[C@H]1C=C(C(=O)O)O[C@@H](OCc2ccc(CO)cc2)C1 | 7.27%
52 | O=C(CSCc1ccc(Br)cc1)NCc1ccccn1 | 3.67%
53 | CCOC(=O)N1CCN(c2c(NCCc3ccc(OC)c(OC)c3)c(=O)c2=O)CC1 | 2.71%
54 | COc1ccc(N)cc1C#N | -1.71%
55 | Cc1ccc(-c2oc3ccccc3c(=O)c2OCC(=O)O)cc1 | 7.74%
56 | O=C(Nc1ccc(Oc2ccccc2)cc1)C1CCN(c2ncccn2)CC1 | 0.064%
57 | Cc1nn(CC(=O)N(C)Cc2ccccc2)c(=O)c2cccn12 | 16.7%
58 | O=C(CN1CCCN(Cc2ccc(F)cc2Cl)C1=O)NC1CCCC1 | 5.61%
59 | COC(=O)c1ccccc1NC(=O)NCCc1ccc(OC)c(OC)c1.Cl | 27.7%
60 | Cc1cc(N2C(=O)CC(N3CCN(c4ccc(C(=O)c5cccs5)cc4)CC3)C2=O)no1 (stereo not drawn) | -37.3%
61 | COc1ccc(C(=O)Nc2ccccc2NC(=O)c2ccco2)cc1OC | -26.3%
62 | CCOC(=O)c1[nH]cnc1C(=O)Nc1ccncc1 | -2.36%
63 | Cc1cccc(-n2c(CCn3nc(C)c([N+](=O)[O-])c3C)n[nH]c2=S)c1 | 6.85%
64 | O=C(CSc1n[nH]c(=O)n1C1CC1)Nc1ccc(Cl)c(Cl)c1 | -19.6%
65 | Nc1ccc2nc(-c3ccc(Cl)cc3)[nH]c2c1 | -5.75%
66 | COc1ccc(N2C(=NC(C)=O)SC3CS(=O)(=O)CC32)cc1OC (stereo not drawn) | -2.83%
67 | COC(=O)c1ccc(N2CCN(C)CC2)c(NC(=O)COc2ccccc2)c1 | -43.9%
68 | COc1ccc(-n2c(Cc3cccn3C)nnc2SCC(=O)Nc2ccc(F)cc2F)cc1 | -57.4%
69 | C=C1C(=O)O[C@@H]2C[C@@H](C)[C@@H]3C=CC(=O)[C@@]3(C)[C@@H](OC(=O)CC(=O)O[C@H]3[C@@H]4C(=C)C(=O)O[C@@H]4C[C@@H](C)[C@@H]4C=CC(=O)[C@]43C)[C@H]12 | -38.6%

Row | SMILES | hERG current change (%, negative = inhibition) at 10uM
70 | CCCc1cc(C(=O)Cc2ccc(C(=O)OCC)o2)c(O)cc1O | -0.564%
71 | CCCn1nnnc1NC(=O)c1ccc2ccccc2c1 | 13.6%
72 | COc1cccc(CN2CCN(C(=O)c3oc4c(F)cccc4c3C)CC2=O)c1 | 1%
73 | O=C(CSc1ccc(Cl)cc1)NCC1CCCO1 (stereo not drawn) | -0.18%
74 | CSCC[C@@H](CO)NC(=O)c1ccc2nc(C3CCCCC3)oc2c1 | 4.75%
75 | CSc1nc(NC(C)=O)nc(C)c1Br | -0.891%
76 | O=C(Nc1cc(C(F)(F)F)ccc1Cl)c1cccc(N2C(=O)CCC2=O)c1 | 10.7%
77 | COc1ccc(NC(=O)CC(CC(=O)O)c2cc(OC)c(OC)c(OC)c2)cc1 (stereo not drawn) | 7.3%
78 | CC(C)Sc1ncnc2c1oc1ccccc12 | -2.07%
79 | O=C(Nc1ccccc1)Nc1ccccc1Br | 6.94%
80 | Cc1ccc(CNC(=O)C2=CCN(S(=O)(=O)c3ccc(C)cc3)CC2)cc1 | -22.1%
81 | COc1ccccc1C(=O)NCCC(=O)N(C)Cc1cccs1 | -2.13%
82 | O=[N+]([O-])c1cccc(CN2CCCCCC2)c1 | 5.75%
83 | N#C/C(=C/c1ccc(-c2ccccc2)o1)c1nc(-c2cccs2)cs1 | 9.15%
84 | Nc1c(S(=O)(=O)c2cccs2)c2nc3ccccc3nc2n1CC1CCCO1 (stereo not drawn) | 0.762%
85 | COc1cccc2sc(NN)nc12 | 19.1%
86 | NC(=O)CC(NC(=O)Cc1ccc(Br)cc1)c1ccc(NCCOc2ccccc2)c([N+](=O)[O-])c1 (stereo not drawn) | -2.98%
87 | COC(=O)C1=C(C)N(Cc2cccnc2)C(=O)C1 | -0.706%
88 | c1ccc(Nc2nnc(-c3cccnc3)s2)cc1 | 27%
89 | COCCCNC(=S)N1CCN(Cc2ccc3c(c2)OCO3)CC1 | 13%
90 | COc1ccc(N2CCN(C(=O)COc3ccc(S(=O)(=O)N4CCOCC4)cc3C)CC2)cc1 | -20.3%
